The list shows a part of the results. Sequences were assembled here from the parent chain. Inactive controls read about 0.05.
B1: TEV protease; numbered along this chain (parent)
chain: MGESLFKGPRDYNPISSSICHLTNESDGHTTSLYGIGFGPFIITNKHLFRRNNGTLVVQSLHGVFKVKDTTTLQQHLVDGRDMIIIRMPKDFPPFPQKLKFREPQREERICLVTTNFQTKSMSSMVSDTSCTFPSGDGIFWKHWIQTKDGQCGSPLVSTRDGFIVGIHSASNFTNTNNYFTSVPKNFMELLTNQEAQQWVSGWRLNADSVLWGGHKVFMVKPEEPFQPVKEATQL

Variants of: B1
Assay: raw area under fraction-flipped curve 0-4 h after induction (AUC4h, not background-subtracted), DNA-recorder readout of cleavage of the substrate (dimensionless); higher = more cleavage of the substrate by the protease variant
Settings: temperature: 34 °C; time window: 0-4 h after rhamnose induction
Protocol: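 In vivo DNA recorder in E. coli TOP10(DE3) ΔrhaA at 34 °C. Each TEVp single-site mutant (parent TEVp 0) is paired with a single-site variant of the 7-mer TEVs (canonical ENLYFQ|S). The substrate sits between flexible linkers in a Bxb1-sfGFP-TEVs-SsrA fusion, so cleavage stabilises Bxb1 and speeds flipping of a recombination array, read by NGS. The value is the raw area under the fraction-flipped curve over 0-4 h after rhamnose induction (AUC4h), with ≥20 reads per time point. It is not background-subtracted; inactive controls average about 0.047.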
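Also: Bxb1 expression induced with 0.2% (w/v) L-rhamnose at OD600 near 0.5, cultures sampled hourly, flipped fraction per protease–substrate barcode pair counted by paired-end Illumina sequencing.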

Variant	area with substrate ENAYFQS	area with substrate ENCYFQS	area with substrate ENDYFQS	area with substrate ENEYFQS	area with substrate ENFYFQS	area with substrate ENHYFQS	area with substrate ENIYFQS	area with substrate ENKYFQS	area with substrate ENNYFQS	area with substrate ENPYFQS	area with substrate ENQYFQS	area with substrate ENRYFQS	area with substrate ENSYFQS	area with substrate ENTYFQS	area with substrate ENVYFQS	area with substrate ENWYFQS	area with substrate ENYYFQS	area with substrate ENGYFQS	area with substrate ENMYFQS
D149Y	0.0528	0.0697	0.0612	0.0591	0.0555	0.0542	0.0585	0.0639	0.0514	0.0548	0.0585	0.0521	0.0463	0.0469	0.0615	0.0488	0.0703	–	–
T147Q	0.0675	–	0.0707	0.0574	0.0548	0.0624	0.0718	0.0658	0.0614	0.0624	0.061	0.0667	0.0614	–	0.0631	0.0573	–	0.0657	0.0645
W141A	0.0576	0.0508	–	0.0533	0.0555	0.0548	–	–	0.0558	0.0667	0.0506	0.0612	0.0615	0.0569	–	–	0.0628	0.052	–
W141P	0.0607	0.0646	–	0.0552	0.0637	0.0629	0.0483	0.0558	0.0397	0.0517	0.0612	0.0576	0.0553	0.0444	0.086	–	–	0.0568	–
W141I	0.0542	0.0567	–	0.0631	0.0538	0.0588	–	0.048	–	–	0.0834	–	–	0.058	–	–	–	0.0561	–
S154H	0.0573	0.078	0.0624	–	0.0487	–	0.132	0.0567	–	0.0504	0.0684	–	0.0682	–	0.0596	0.0658	0.0521	0.0509	–
C152P	0.0504	0.0609	0.0619	–	–	–	–	0.0647	0.0617	–	0.0529	0.0523	0.0508	0.082	0.053	0.0595	0.0733	0.0664	–
P155D	0.0501	0.0752	0.0587	0.0537	–	0.044	–	–	0.0518	–	0.054	0.0388	0.0475	0.0503	0.053	–	–	0.0477	0.0528
P155K	0.0542	0.0475	0.0465	–	0.0542	0.0306	0.0545	–	0.0478	0.0613	0.0659	0.0634	0.0573	0.0481	0.0538	–	–	0.0595	0.0563
I145K	0.0542	0.063	0.0622	0.0595	0.0448	0.0606	–	0.0589	0.0578	–	0.0417	0.0431	0.055	–	0.0483	0.0587	0.0768	0.0727	0.0625
K148Q	0.0681	0.0662	0.0628	0.0702	0.0636	–	0.1	–	–	–	0.0565	0.0551	0.0498	0.0488	0.0629	–	–	–	–
K148E	0.0709	0.07	0.0546	0.0647	0.052	–	0.113	–	0.0551	–	0.0643	0.0465	0.0533	0.0708	0.0733	–	0.0532	0.0589	0.075
K148R	0.0572	–	0.072	0.0741	0.08	–	0.102	0.0974	0.0454	–	0.0513	–	0.0641	–	0.0605	–	0.0657	0.0551	0.0712
Q151M	0.0542	–	0.0678	0.058	0.0737	–	–	–	0.0718	0.0629	0.0696	0.0523	0.0621	–	0.0579	–	–	0.0584	–
Q151E	0.0648	0.0524	0.0684	0.0658	–	0.0573	0.133	–	0.0584	0.0575	0.0553	0.0562	0.0651	0.0624	0.0873	–	0.0344	0.0535	–
Q146T	0.0547	0.0771	0.0711	0.0602	0.0354	0.0575	–	0.0571	0.0545	–	0.0624	0.0599	0.0665	0.0533	0.0714	–	0.0542	0.0808	–
Q146C	0.0793	–	0.0595	0.0554	0.0514	0.054	–	0.0558	0.057	0.065	0.0578	0.0624	0.0522	0.0716	0.0847	0.0564	0.0456	0.0657	–
Q146K	0.085	0.0723	0.0681	0.0585	0.0625	–	–	0.0621	0.0519	0.0432	0.0623	0.0529	0.0636	0.0446	0.0861	–	–	0.0384	0.0809
Q146M	0.0721	0.0498	0.0641	0.0392	0.0651	0.0617	–	0.0646	0.0505	0.0313	0.066	0.0515	0.158	0.0661	0.0716	–	–	0.0464	–
G150V	0.0464	0.0542	0.0598	0.0614	0.0495	0.059	0.0587	0.0794	0.0559	0.0492	0.0559	0.0427	0.0551	0.0568	0.0613	0.0594	–	0.068	0.0518
G150H	0.0696	0.0572	0.0681	0.0764	0.062	0.0597	0.0649	0.0693	0.0524	0.0688	0.057	0.0595	0.057	0.0548	0.0557	0.0318	–	0.0606	–
L156E	0.0473	–	0.0512	0.058	0.0398	0.0612	0.0188	0.0366	0.042	–	0.0548	0.0455	0.0472	0.0496	0.0596	0.0479	–	0.0598	0.0593
K142L	0.0622	0.0793	0.0656	0.0618	0.0682	0.0612	0.151	0.0613	0.0605	0.0603	0.0556	0.0558	0.0481	0.0926	0.0872	–	–	0.0685	0.0898
K142I	0.0677	0.0658	0.0685	0.0604	–	0.0633	0.0923	0.054	0.067	–	0.0594	0.0662	0.0795	–	0.0796	0.0645	0.0594	0.0678	0.0835

Source: the supplement of paper PMC12217912
